# The list shows a part of the results.
# B1: Gal 8 (Mus musculus), Q9JL15 (protein)
# chain: MGGSHHHHHHGMASMLSLNNLQNIIYNPIIPYVGTITEQLKPGSLIVIRGHVPKDSERFQVDFQLGNSLKPRADVAFHFNPRFKRSSCIVCNTLTQEKWGWEEITYDMPFRKEKSFEIVFMVLKNKFQVAVNGRHVLLYAHRISPEQIDTVGIYGKVNIHSIGFRFSSASALPHTLGDLQSMETSALGLTQINRENIQKPGKLQLSLPFEARLNASMGPGRTVVIKGEVNTNARSFNVDLVAGKTRDIALHLNPRLNVKAFVRNSFLQDAWGEEERNITCFPFSSGMYFEMIIYCDVREFKVAINGVHSLEYKHRFKDLSSIDTLSVDGDIRLLDVRSW
# Assays:
# Experiment in all cases: glycan array binding signal (z-score within array); higher = stronger binding
# Settings in all cases: glycan notation: IUPAC condensed, linker removed
# [1] = target: Gal(b1-4)GlcNAc(b1-3)Gal(b1-4)GlcNAc(b1-2)Man(a1-3)[Gal(b1-4)GlcNAc(b1-3)Gal(b1-4)GlcNAc(b1-2)Man(a1-6)]Man(b1-4)GlcNAc(b1-4)[Fuc(a1-6)]GlcNAc
# Method in brief: (§1)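 Arrays were curated from the Consortium for Functional Glycomics database, 3228 in total, and kept only where the protein sequence was available. Binding is expressed as a within-array Z-score. This score was averaged across arrays of the same protein sequence at different concentrations or buffers and across linkers, and negative values can be read as non-binding.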
# [2] = target: Gal(b1-4)GlcNAc(b1-3)Gal(b1-4)GlcNAc(b1-2)[Gal(b1-4)GlcNAc(b1-3)Gal(b1-4)GlcNAc(b1-6)]Man(a1-6)[Gal(b1-4)GlcNAc(b1-3)Gal(b1-4)GlcNAc(b1-2)Man(a1-3)]Man(b1-4)GlcNAc(b1-4)GlcNAc
# Method in brief: as §1
# [3] = target: Gal(b1-4)GlcNAc(b1-3)Gal(b1-4)GlcNAc(b1-2)[Gal(b1-4)GlcNAc(b1-3)Gal(b1-4)GlcNAc(b1-6)]Man(a1-6)[Gal(b1-4)GlcNAc(b1-3)Gal(b1-4)GlcNAc(b1-2)Man(a1-3)]Man(b1-4)GlcNAc(b1-4)[Fuc(a1-6)]GlcNAc
# Method in brief: as §1
# [4] = target: Gal(b1-4)GlcNAc(b1-3)Gal(b1-4)GlcNAc(b1-3)Gal(b1-4)GlcNAc
# Method in brief: as §1
# [5] = target: Gal(b1-4)GlcNAc(b1-3)Gal(b1-4)GlcNAc(b1-3)Gal(b1-4)GlcNAc(b1-2)Man(a1-3)[Gal(b1-4)GlcNAc(b1-3)Gal(b1-4)GlcNAc(b1-3)Gal(b1-4)GlcNAc(b1-2)Man(a1-6)]Man(b1-4)GlcNAc(b1-4)GlcNAc
# Method in brief: as §1
# [6] = target: Gal(b1-4)GlcNAc(b1-3)Gal(b1-4)GlcNAc(b1-3)Gal(b1-4)GlcNAc(b1-2)Man(a1-3)[Gal(b1-4)GlcNAc(b1-3)Gal(b1-4)GlcNAc(b1-3)Gal(b1-4)GlcNAc(b1-2)Man(a1-6)]Man(b1-4)GlcNAc(b1-4)[Fuc(a1-6)]GlcNAc
# Method in brief: as §1
# [7] = target: Gal(b1-4)GlcNAc(b1-3)Gal(b1-4)GlcNAc(b1-3)Gal(b1-4)GlcNAc(b1-2)[Gal(b1-4)GlcNAc(b1-3)Gal(b1-4)GlcNAc(b1-3)Gal(b1-4)GlcNAc(b1-6)]Man(a1-6)[Gal(b1-4)GlcNAc(b1-3)Gal(b1-4)GlcNAc(b1-3)Gal(b1-4)GlcNAc(b1-2)Man(a1-3)]Man(b1-4)GlcNAc(b1-4)[Fuc(a1-6)]GlcNAc
# Method in brief: as §1
# [8] = target: Gal(b1-4)GlcNAc(b1-3)Gal(b1-4)GlcNAc(b1-3)Gal(b1-4)GlcNAc(b1-3)Gal(b1-4)GlcNAc(b1-2)Man(a1-3)[Gal(b1-4)GlcNAc(b1-3)Gal(b1-4)GlcNAc(b1-3)Gal(b1-4)GlcNAc(b1-3)Gal(b1-4)GlcNAc(b1-2)Man(a1-6)]Man(b1-4)GlcNAc(b1-4)GlcNAc
# Method in brief: as §1
# [9] = target: Gal(b1-4)GlcNAc(b1-3)Gal(b1-4)GlcNAc(b1-3)Gal(b1-4)GlcNAc(b1-3)Gal(b1-4)GlcNAc(b1-2)Man(a1-3)[Gal(b1-4)GlcNAc(b1-3)Gal(b1-4)GlcNAc(b1-3)Gal(b1-4)GlcNAc(b1-3)Gal(b1-4)GlcNAc(b1-2)Man(a1-6)]Man(b1-4)GlcNAc(b1-4)[Fuc(a1-6)]GlcNAc
# Method in brief: as §1
# [10] = target: Gal(b1-4)GlcNAc(b1-3)Gal(b1-4)GlcNAc(b1-3)Gal(b1-4)GlcNAc(b1-3)Gal(b1-4)GlcNAc(b1-2)[Gal(b1-4)GlcNAc(b1-3)Gal(b1-4)GlcNAc(b1-3)Gal(b1-4)GlcNAc(b1-3)Gal(b1-4)GlcNAc(b1-6)]Man(a1-6)[Gal(b1-4)GlcNAc(b1-3)Gal(b1-4)GlcNAc(b1-3)Gal(b1-4)GlcNAc(b1-3)Gal(b1-4)GlcNAc(b1-2)Man(a1-3)]Man(b1-4)GlcNAc(b1-4)[Fuc(a1-6)]GlcNAc
# Method in brief: as §1
# [11] = target: Gal(b1-4)GlcNAc(b1-3)Gal(b1-4)GlcNAc(b1-3)Gal(b1-4)GlcNAc(b1-3)Gal(b1-4)GlcNAc(b1-3)Gal(b1-4)GlcNAc(b1-2)Man(a1-3)[Gal(b1-4)GlcNAc(b1-3)Gal(b1-4)GlcNAc(b1-3)Gal(b1-4)GlcNAc(b1-3)Gal(b1-4)GlcNAc(b1-3)Gal(b1-4)GlcNAc(b1-2)Man(a1-6)]Man(b1-4)GlcNAc(b1-4)GlcNAc
# Method in brief: as §1
# [12] = target: Gal(b1-4)GlcNAc(b1-3)Gal(b1-4)GlcNAc(b1-3)Gal(b1-4)GlcNAc(b1-3)Gal(b1-4)GlcNAc(b1-3)Gal(b1-4)GlcNAc(b1-2)Man(a1-3)[Gal(b1-4)GlcNAc(b1-3)Gal(b1-4)GlcNAc(b1-3)Gal(b1-4)GlcNAc(b1-3)Gal(b1-4)GlcNAc(b1-3)Gal(b1-4)GlcNAc(b1-2)Man(a1-6)]Man(b1-4)GlcNAc(b1-4)[Fuc(a1-6)]GlcNAc
# Method in brief: as §1
# [13] = target: Gal(b1-4)GlcNAc(b1-3)Gal(b1-4)GlcNAc(b1-3)Gal(b1-4)GlcNAc(b1-3)Gal(b1-4)GlcNAc(b1-3)Gal(b1-4)GlcNAc(b1-2)[Gal(b1-4)GlcNAc(b1-3)Gal(b1-4)GlcNAc(b1-3)Gal(b1-4)GlcNAc(b1-3)Gal(b1-4)GlcNAc(b1-3)Gal(b1-4)GlcNAc(b1-6)]Man(a1-6)[Gal(b1-4)GlcNAc(b1-3)Gal(b1-4)GlcNAc(b1-3)Gal(b1-4)GlcNAc(b1-3)Gal(b1-4)GlcNAc(b1-3)Gal(b1-4)GlcNAc(b1-2)Man(a1-3)]Man(b1-4)GlcNAc(b1-4)[Fuc(a1-6)]GlcNAc
# Method in brief: as §1
# [14] = target: Gal(b1-4)GlcNAc(b1-3)Gal(b1-4)GlcNAc(b1-3)Gal(b1-4)GlcNAc(b1-3)Gal(b1-4)GlcNAc(b1-3)Gal(b1-4)GlcNAc(b1-3)Gal(b1-4)GlcNAc(b1-2)Man(a1-3)[Gal(b1-4)GlcNAc(b1-3)Gal(b1-4)GlcNAc(b1-3)Gal(b1-4)GlcNAc(b1-3)Gal(b1-4)GlcNAc(b1-3)Gal(b1-4)GlcNAc(b1-3)Gal(b1-4)GlcNAc(b1-2)Man(a1-6)]Man(b1-4)GlcNAc(b1-4)GlcNAc
# Method in brief: as §1
# [15] = target: Gal(b1-4)GlcNAc(b1-3)Gal(b1-4)GlcNAc(b1-3)GalNAc
# Method in brief: as §1
# [16] = target: Gal(b1-4)GlcNAc(b1-3)Gal(b1-4)GlcNAc(b1-3)[Gal(b1-4)GlcNAc(b1-3)Gal(b1-4)GlcNAc(b1-6)]GalNAc
# Method in brief: as §1
# [17] = target: Gal(b1-4)GlcNAc(b1-3)Gal(b1-4)GlcNAc(b1-6)[Gal(b1-3)]GalNAc
# Method in brief: as §1
# [18] = target: Gal(b1-4)GlcNAc(b1-3)Gal(b1-4)[Fuc(a1-3)]GlcNAc(b1-3)Gal(b1-4)[Fuc(a1-3)]GlcNAc
# Method in brief: as §1
# [19] = target: Gal(b1-4)GlcNAc(b1-3)GalNAc
# Method in brief: as §1
# [20] = target: Gal(b1-4)GlcNAc(b1-3)[Fuc(a1-3)GlcNAc(b1-6)]Gal(b1-4)Glc
# Method in brief: as §1
# [21] = target: Gal(b1-4)GlcNAc(b1-3)[Gal(b1-4)GlcNAc(b1-6)]Gal(b1-4)GlcNAc
# Method in brief: as §1
# [22] = target: Gal(b1-4)GlcNAc(b1-3)[GlcNAc(b1-6)]Gal(b1-4)GlcNAc
# Method in brief: as §1
# [23] = target: Gal(b1-4)GlcNAc(b1-6)Gal(b1-4)GlcNAc
# Method in brief: as §1
# [24] = target: Gal(b1-4)GlcNAc(b1-6)GalNAc
# Method in brief: as §1
# [25] = target: Gal(b1-4)GlcNAc(b1-6)[Gal(b1-3)]GalNAc
# Method in brief: as §1
# [26] = target: Gal(b1-4)GlcNAc(b1-6)[Gal(b1-4)GlcNAc(b1-3)]GalNAc
# Method in brief: as §1
# [27] = target: Gal(b1-4)GlcNAc6P
# Method in brief: as §1
# [28] = target: Gal(b1-6)Gal
# Method in brief: as §1
# [29] = target: Gal3S(b1-3)GalNAc
# Method in brief: as §1
# [30] = target: Gal3S(b1-3)GlcNAc
# Method in brief: as §1
# [31] = target: Gal3S(b1-3)[Fuc(a1-4)]GlcNAc
# Method in brief: as §1
# [32] = target: Gal3S(b1-4)Glc
# Method in brief: as §1
# [33] = target: Gal3S(b1-4)Glc6S
# Method in brief: as §1
# [34] = target: Gal3S(b1-4)GlcNAc
# Method in brief: as §1
# [35] = target: Gal3S(b1-4)[Fuc(a1-3)]Glc6S
# Method in brief: as §1
# [36] = target: Gal3S(b1-4)[Fuc(a1-3)]GlcNAc
# Method in brief: as §1
# [37] = target: Gal3S(b1-4)[Fuc(a1-3)]GlcNAc6S
# Method in brief: as §1
# [38] = target: Gal3S4S(b1-4)GlcNAc
# Method in brief: as §1
# [39] = target: Gal3S6S(b1-4)GlcNAc
# Method in brief: as §1
# [40] = target: Gal3S6S(b1-4)GlcNAc6S
# Method in brief: as §1
# [41] = target: Gal4S(b1-4)GlcNAc
# Method in brief: as §1
# [42] = target: Gal4S6S(b1-4)GlcNAc
# Method in brief: as §1
# [43] = target: Gal6P(b1-4)GlcNAc
# Method in brief: as §1
# [44] = target: Gal6S(b1-3)GlcNAc
# Method in brief: as §1
# [45] = target: Gal6S(b1-3)GlcNAc6S
# Method in brief: as §1
binder,measurement,setting,value
B1,glycan array binding signal (z-score),[1],1.48
same,glycan array binding signal (z-score),[2],1.06
same,glycan array binding signal (z-score),[3],1.71
same,glycan array binding signal (z-score),[4],0.937
same,glycan array binding signal (z-score),[5],2.02
same,glycan array binding signal (z-score),[6],2.19
same,glycan array binding signal (z-score),[7],2.61
same,glycan array binding signal (z-score),[8],2.34
same,glycan array binding signal (z-score),[9],2.58
same,glycan array binding signal (z-score),[10],2.76
same,glycan array binding signal (z-score),[11],3.48
same,glycan array binding signal (z-score),[12],3.61
same,glycan array binding signal (z-score),[13],2.46
same,glycan array binding signal (z-score),[14],3.5
same,glycan array binding signal (z-score),[15],-0.149
same,glycan array binding signal (z-score),[16],-0.063
same,glycan array binding signal (z-score),[17],0.021
same,glycan array binding signal (z-score),[18],0.069
same,glycan array binding signal (z-score),[19],-0.207
same,glycan array binding signal (z-score),[20],-0.188
same,glycan array binding signal (z-score),[21],0.445
same,glycan array binding signal (z-score),[22],0.061
same,glycan array binding signal (z-score),[23],-0.023
same,glycan array binding signal (z-score),[24],-0.214
same,glycan array binding signal (z-score),[25],0.086
same,glycan array binding signal (z-score),[26],0.001
same,glycan array binding signal (z-score),[27],-0.31
same,glycan array binding signal (z-score),[28],-0.538
same,glycan array binding signal (z-score),[29],-0.246
same,glycan array binding signal (z-score),[30],0.013
same,glycan array binding signal (z-score),[31],-0.497
same,glycan array binding signal (z-score),[32],-0.186
same,glycan array binding signal (z-score),[33],0.566
same,glycan array binding signal (z-score),[34],-0.385
same,glycan array binding signal (z-score),[35],-0.498
same,glycan array binding signal (z-score),[36],-0.532
same,glycan array binding signal (z-score),[37],-0.164
same,glycan array binding signal (z-score),[38],-0.55
same,glycan array binding signal (z-score),[39],-0.533
same,glycan array binding signal (z-score),[40],-0.495
same,glycan array binding signal (z-score),[41],-0.543
same,glycan array binding signal (z-score),[42],-0.538
same,glycan array binding signal (z-score),[43],-0.548
same,glycan array binding signal (z-score),[44],-0.538
same,glycan array binding signal (z-score),[45],-0.532

# Reference: the supplement of paper PMC8728848
